Results on 12 proteins are retold here after patent publication US20210238260.

In general, KM refers to the substrate concentration at which the rate is half of its maximum. As a reminder, the kcat/KM is the turnover number divided by the Michaelis constant. As a reminder, the kcat is the maximal rate divided by the concentration of active sites.

B1: FIXa D85N/D203N/F205T (protein)
chain 1: YNSGKLEEFVQGNLERECMEEKCSFEEAREVFENTERTTEFWKQYVDGDQCESNPCLNGGSCKDDINSYECWCPFGFEGKNCELNVTCNIKNGRCEQFCKNSADNKVVCSCTEGYRLAENQKSCEPAVPFPCGRVSVSQTSKLTR
chain 2: [no letters for about 250 residues with changes]
B2: FIXa D85N/I251S (protein)
chain 1: B1 chain 1
chain 2: [no letters for about 250 residues with changes]
B3: FIXa A103N/N105S/K228N (protein)
chain 1: B1 chain 1 with N85D, A103N, N105S
chain 2: [no letters for about 250 residues with changes]
B4: FIXa D85N/K228N (protein)
chain 1: B1 chain 1
chain 2: [no letters for about 250 residues with changes]
B5: FIXa D85N/D104N/K106S/I251S (protein)
chain 1: B1 chain 1 with D104N, K106S
chain 2: [no letters for about 250 residues]
B6: FIXa-D85N/I251S (protein)
chain 1: B1 chain 1
chain 2: [no letters for about 250 residues with changes]
B7: FIXa-D85N/D203N/F205T (protein)
chain 1: B1 chain 1
chain 2: [no letters for about 250 residues with changes]
B8: FIXa-A103N/N105S/K228N (protein)
chain 1: B1 chain 1 with N85D, A103N, N105S
chain 2: [no letters for about 250 residues with changes]
B9: FIXa-D104N/K106S/I251S (protein)
chain 1: B1 chain 1 with N85D, D104N, K106S
chain 2: [no letters for about 250 residues with changes]
B10: FIXa-D85N/D104N/K106S/I251S (protein)
chain 1: B1 chain 1 with D104N, K106S
chain 2: [no letters for about 250 residues]
B11: FIXa-A103N/N105S/I251S (protein)
chain 1: B1 chain 1 with N85D, A103N, N105S
chain 2: [no letters for about 250 residues with changes]
B12: FIXa-D85N/K228N (protein)
chain 1: B1 chain 1
chain 2: [no letters for about 250 residues with changes]

Numbering of substitutions follows the chain as printed. Names and notes keep the numbering of the source.

One data set deals with antithrombin III (plasma purified human AT-III, Molecular Innovations). The data set can be described thus: ratio of K0.5 to recombinant WT FIXa (Catalyst Biosciences WT); AT-III/UFH inhibition assay.
B1: the K0.5-mut/K0.5-wt was determined as 30.3.
Regarding B2, the K0.5-mut/K0.5-wt came to 1.
Take B3: the K0.5-mut/K0.5-wt was determined as 2.4.
As to B4, the K0.5-mut/K0.5-wt was found to be 1.7.

The next data set has as its target plasma purified human AT-III (antithrombin III), in complex with full-length unfractionated heparin.
Test: not given
For the protein B5, the K0.5-mut/K0.5-wt stood at 1.4.

The target in the next data set is Factor X, P00742.
Test: not given
Regarding B1, the KM worked out at 0.0406 µM.
Consider B2, for which the “% of WT kcat/KM” value was 124%, the Michaelis-Menten constant (KM) is 0.0515 µM and the kcat/KM was 5.6e+07 M⁻¹ s⁻¹.
B3: the KM stood at 0.0765 µM.
For B5, the “% of WT kcat/KM” value is listed as 75%, the KM amounted to 0.0464 µM and the kcat/KM was determined as 3.3e+07 M⁻¹ s⁻¹.
Turning to B4, the KM turned out to be 0.0601 µM.

The next data set has as its target Factor X (FX), active site titrated and DFP/EGR-cmk treated zymogen, P00742.
Test: not given
In the case of B1, the KM was determined as 0.0406 µM.
Still for that read-out and setting: with B2 the figure was 0.0515 µM; with B3, 0.0765 µM; with B5, 0.0464 µM.
With B4, the KM came out at 0.0601 µM.

The next data set addresses Factor X (FX), P00742.
Test: not given
For B1, the “% of WT kcat/KM” value is reported as 64%, the kcat amounted to 1.2 s⁻¹ and the kcat/KM turned out to be 3e+07 M⁻¹ s⁻¹.
Regarding B2, the kcat was 2.8 s⁻¹.
For B3, the “% of WT kcat/KM” value turned out to be 63%, the kcat came to 2.1 s⁻¹ and the kcat/KM worked out at 2.9e+07 M⁻¹ s⁻¹.
On to B6, for which the “% of WT kcat/KM” value was found to be 121%, the kcat came out at 2.8 s⁻¹ and the kcat/KM came out at 5.6e+07 M⁻¹ s⁻¹.
For the protein B7, the “% of WT kcat/KM” value came out at 66%, the kcat came to 1.2 s⁻¹ and the kcat/KM stood at 3e+07 M⁻¹ s⁻¹.
B8: the “% of WT kcat/KM” value was 64%, the kcat amounted to 2.1 s⁻¹ and the kcat/KM turned out to be 2.9e+07 M⁻¹ s⁻¹.
In the same order, the values of B9 are 64%, 2.9 s⁻¹ and 2.9e+07 M⁻¹ s⁻¹.
Regarding B10, the “% of WT kcat/KM” value came out at 73%, the kcat was found to be 1.5 s⁻¹ and the kcat/KM came out at 3.3e+07 M⁻¹ s⁻¹.
As to B5, the kcat stood at 1.5 s⁻¹.
As for B11, the “% of WT kcat/KM” value came to 84%, the kcat was 2.9 s⁻¹ and the kcat/KM came out at 3.9e+07 M⁻¹ s⁻¹.
Turning to B4, the “% of WT kcat/KM” value is 101%, the kcat was 2.7 s⁻¹ and the kcat/KM was found to be 4.6e+07 M⁻¹ s⁻¹.
As to B12, the “% of WT kcat/KM” value was determined as 104%, the kcat was determined as 2.7 s⁻¹ and the kcat/KM was 4.6e+07 M⁻¹ s⁻¹.

The next data set addresses plasma purified human AT-III (antithrombin III).
Test: not given
In turn, B2 had a K0.5 of 28.3 nM and a K0.5-mut/K0.5-wt of 1.
In the same order, the values of B5 are 32.1 nM and 1.1.

The next data set addresses plasma purified human AT-III (antithrombin III) in complex with unfractionated heparin. Briefly: ratio of K0.5 to Catalyst Biosciences WT FIXa; AT-III/UFH inhibition assay.
For the protein B9, the K0.5-mut/K0.5-wt came out at 1.6.
For the protein B10, the K0.5-mut/K0.5-wt is 1.4.
Take B11: the K0.5-mut/K0.5-wt worked out at 2.2.

Another data set deals with plasma purified human antithrombin III (AT-III), in complex with unfractionated heparin (UFH). Briefly: same assay; K0.5 ratio to Catalyst Biosciences WT FIXa.
As for B6, the K0.5-mut/K0.5-wt is 1.
Consider B7, for which the K0.5-mut/K0.5-wt came out at 30.3.
On to B8, for which the K0.5-mut/K0.5-wt was 2.4.
For B12, the K0.5-mut/K0.5-wt amounted to 1.7.
